Assay results as given in the supplement of paper PMC9446081.
The whole screen tested about 39,000 compounds, of which about 220 (0.56%) showed activity. The list shows a part of the results.

Test system: Escherichia coli K-12 BW25113
Experiment: relative growth (OD600 normalised to plate interquartile mean) (fraction); higher = less growth inhibition, active = 0.2 or less
Details: 50 µM; LB; incubation time: overnight (16-24 h)
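Note: static incubation at 37 °C against the wild-type strain, values averaged over two biological replicates.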

Q: Which relative growth does the source give for CN1CCN([C@H](CNC(=O)C(=O)NC[C@H]2CCCO2)c2ccc(N(C)C)cc2)CC1 here?
A: Its relative growth is inactive: 0.944.

Q: Which relative growth does the source give for N[C@H](c1ccc(Cl)cc1)c1cccnc1 here?
A: Its relative growth is inactive: 1.02.

Q: Which relative growth does the source give for C[C@H]1COC(=O)[C@@H](CC(=O)OC(C)(C)C)CC=CC[C@@H](CC(=O)N[C@@H](CO)Cc2ccccc2)C(=O)N1 here?
A: Its relative growth is inactive: 0.997.

Q: For CO[C@@H]1CN(C)C(=O)c2cc(NC(=O)Nc3ccccc3F)ccc2OC[C@H](C)N(CCC(F)(F)F)C[C@@H]1C, which relative growth is on record?
A: Its relative growth is inactive: 0.99.

Q: With C[C@@H]1CN([C@@H](C)CO)C(=O)c2cc(N(C)C)ccc2O[C@@H](C)CCCCO[C@H]1CN(C)C(=O)Nc1cccc2ccccc12 as the compound, how does the relative growth read?
A: Its relative growth is inactive: 1.

Q: For CC/C=C/C(=O)N(C[C@@H]1CCCO1)[C@@H]1CC(C(=O)NCCO)=C[C@H](Oc2c(I)cc(CO)cc2OC)[C@H]1O, which relative growth is on record?
A: Its relative growth is inactive: 1.

Q: How did the relative growth turn out when C[C@H]1CN([C@@H](C)CO)C(=O)c2cccc(NS(C)(=O)=O)c2O[C@@H]1CN(C)Cc1ccc(C(F)(F)F)cc1 was run?
A: Its relative growth is inactive: 1.01.

Q: With C[C@@H]1CN([C@@H](C)CO)C(=O)Cc2cc(NS(=O)(=O)c3cn(C)cn3)ccc2O[C@@H]1CN(C)C(=O)NC1CCCCC1 as the compound, how does the relative growth read?
A: Its relative growth is inactive: 0.939.

Q: For COc1ccc(NC(=O)N(C)C[C@@H]2OCCCC[C@H](C)Oc3ccc(NC(=O)Nc4ccc(C(F)(F)F)cc4)cc3C(=O)N([C@@H](C)CO)C[C@H]2C)cc1, which relative growth is on record?
A: Its relative growth is inactive: 0.963.

Q: How did the relative growth turn out when Cc1ccc(S(=O)(=O)Nc2cccc3c2O[C@H](CN(C)S(C)(=O)=O)[C@H](C)CN([C@H](C)CO)C3=O)cc1 was run?
A: The relative growth was inactive: 1.

Q: CN1CCN(C(=O)C[C@@H]2CC[C@@H]3[C@H](COC[C@H](O)CN3C(=O)Nc3cc(Cl)cc(Cl)c3)O2)CC1 was tested. Which relative growth did it give?
A: The relative growth was inactive: 0.968.

Q: With CN(C)C(=O)C[C@H]1CC[C@@H]2[C@H](COc3ccc(NS(=O)(=O)c4cccc(F)c4)cc3C(=O)N2C)O1 as the compound, how does the relative growth read?
A: Its relative growth is inactive: 1.01.

Q: CCCCCCCCCCCCCCCCCCCC(=O)N[C@H]1CC[C@@]2(C)[C@@H](C1)C[C@@H](O)[C@@H]1[C@@H]2C[C@H](O)[C@]2(C)[C@@H]([C@H](C)CCC(=O)O)CC[C@@H]12 was tested. Which relative growth did it give?
A: The relative growth was inactive: 1.02.

Q: For C[C@@H]1CN([C@@H](C)CO)S(=O)(=O)c2ccc(C#CC(C)(C)O)cc2O[C@@H]1CN(C)C(=O)CN(C)C, which relative growth is on record?
A: The relative growth was inactive: 0.974.

Q: Which relative growth does the source give for C[C@H](CO)N1C[C@H](C)[C@H](CN(C)C(=O)Nc2ccccc2)Oc2c(NC(=O)c3ccc(-c4nccs4)cc3)cccc2C1=O here?
A: The relative growth was inactive: 1.

Q: With Cc1ccc(S(=O)(=O)N(C)C[C@H]2Oc3c(NS(=O)(=O)c4c(C)noc4C)cccc3C(=O)N([C@H](C)CO)C[C@H]2C)cc1 as the compound, how does the relative growth read?
A: Its relative growth is inactive: 1.03.

Q: With C[C@H]1CCCCO[C@H](CN(C)Cc2ccccc2)[C@@H](C)CN([C@@H](C)CO)C(=O)c2cc(NC(=O)c3ccccc3)ccc2O1 as the compound, how does the relative growth read?
A: Its relative growth is inactive: 1.01.

Q: CC(C)C#Cc1ccc2c(c1)O[C@@H](CN(C)S(=O)(=O)c1cn(C)cn1)[C@@H](C)CN([C@@H](C)CO)S2(=O)=O was tested. Which relative growth did it give?
A: The relative growth was inactive: 0.991.

Q: O=C1C[C@]2(c3ccc([N+](=O)[O-])cc3)C(=O)N(C3CC3)c3cc(CO)ccc3[C@H]2N1CC12CC3CC(CC(C3)C1)C2 was tested. Which relative growth did it give?
A: The relative growth was inactive: 1.01.

Q: CC(C)NC(=O)N(C)C[C@H]1Oc2c(NS(=O)(=O)c3ccc(F)cc3)cccc2C(=O)N([C@@H](C)CO)C[C@@H]1C was tested. Which relative growth did it give?
A: Its relative growth is inactive: 0.978.

Q: For Cc1ccc(S(=O)(=O)Nc2ccc3c(c2)C(=O)N([C@@H](C)CO)C[C@H](C)[C@@H](CN(C)C(=O)Nc2ccc4c(c2)OCO4)OCCCC[C@H](C)O3)cc1, which relative growth is on record?
A: Its relative growth is inactive: 1.02.

Q: For C[C@@H]1CN([C@@H](C)CO)C(=O)c2cc(NC(=O)Cc3cn(C)c4ccccc34)ccc2O[C@@H]1CN(C)Cc1ccc(C(F)(F)F)cc1, which relative growth is on record?
A: Its relative growth is inactive: 0.978.

Q: Which relative growth does the source give for COc1ccc2[nH]cc(CCNC(C)=O)c2c1 here?
A: Its relative growth is inactive: 1.04.

Q: For COc1ccc(CN(C)C[C@@H]2OCCCC[C@@H](C)Oc3ccc(NC(=O)Nc4cccc5ccccc45)cc3C(=O)N([C@@H](C)CO)C[C@H]2C)cc1, which relative growth is on record?
A: The relative growth was inactive: 1.02.

Q: Which relative growth does the source give for COc1ccc(S(=O)(=O)N(C)C[C@@H]2Oc3ncc(C#CC4(O)CCCC4)cc3C(=O)N([C@@H](C)CO)C[C@@H]2C)cc1 here?
A: The relative growth was inactive: 0.957.

Q: Which relative growth does the source give for Cc1noc(C)c1NC(=O)N(C)C[C@@H]1OCCCC[C@@H](C)Oc2ccc(NC(=O)Nc3ccccc3)cc2C(=O)N([C@H](C)CO)C[C@@H]1C here?
A: Its relative growth is inactive: 1.

Q: C[C@H]1CN([C@@H](C)CO)C(=O)Cc2cc(NC(=O)Nc3ccc(C(F)(F)F)cc3)ccc2O[C@H]1CN(C)C(=O)Nc1cccc2ccccc12 was tested. Which relative growth did it give?
A: The relative growth was inactive: 0.99.

Q: O=C([O-])c1ccccc1O.[Na+] was tested. Which relative growth did it give?
A: The relative growth was inactive: 1.06.

Q: CC1(C)OC2CC(=O)OCC23C1CC(=O)C1(C)C3CCC2(C)C(c3ccoc3)OC(=O)C3OC321 (centres undefined) was tested. Which relative growth did it give?
A: Its relative growth is inactive: 0.929.

Q: For C[C@H](CO)N1C[C@H](C)[C@@H](CN(C)S(=O)(=O)c2cccs2)Oc2ccc(NS(C)(=O)=O)cc2C1=O, which relative growth is on record?
A: Its relative growth is inactive: 0.974.

Q: With C[C@H](O)[C@H](O)[C@@H](O)[C@@H](O)/C=N/NC(=O)CCCCCC(=O)NO as the compound, how does the relative growth read?
A: Its relative growth is inactive: 0.972.

Q: With CCS(=O)(=O)N1[C@@H](CO)[C@H](c2ccccc2)C12CN(C(=O)CN(C)C)C2 as the compound, how does the relative growth read?
A: The relative growth was inactive: 1.

Q: For C[C@@H]1CN([C@H](C)CO)C(=O)c2cc(NS(=O)(=O)c3cn(C)cn3)ccc2O[C@@H]1CN(C)S(=O)(=O)c1ccc(Cl)cc1, which relative growth is on record?
A: The relative growth was inactive: 0.984.

Q: Which relative growth does the source give for CCC(C)C1OC2(C=CC1C)CC1CC(CC=C(C)C(OC3CC(OC)C(OC4CC(OC)C(O)C(C)O4)C(C)O3)C(C)C=CC=C3COC4C(OC)C(C)=CC(C(=O)O1)C34O)O2 (centres undefined) here?
A: Its relative growth is inactive: 0.949.

Q: With CC(C)N1CC2(CN(Cc3ccc(-c4ccccc4)cc3)C2)Oc2c(NC(=O)c3ccncc3)cccc2C1=O as the compound, how does the relative growth read?
A: Its relative growth is inactive: 1.03.

Q: Which relative growth does the source give for COCC(=O)N1C[C@H](C)[C@@H](OC)CN(C)C(=O)c2ccc(NC(=O)c3cc(C)on3)cc2OC[C@@H]1C here?
A: Its relative growth is inactive: 1.

Q: CN1C(=O)c2cc(NC(=O)C3CCC3)ccc2OC[C@@H]2O[C@H](CC(=O)NCCc3ccncc3)CC[C@@H]21 was tested. Which relative growth did it give?
A: The relative growth was inactive: 0.973.

Q: Which relative growth does the source give for C[C@@H]1CN([C@H](C)CO)C(=O)c2cc(NC(=O)NC3CCCCC3)ccc2O[C@H]1CN(C)Cc1ccc(Cl)c(Cl)c1 here?
A: Its relative growth is inactive: 1.06.

Q: How did the relative growth turn out when COc1ncnc(OC)c1C was run?
A: The relative growth was inactive: 0.824.

Q: Which relative growth does the source give for Cc1noc(C)c1NC(=O)N(C)C[C@H]1OCCCC[C@@H](C)Oc2ccc(NC(=O)Nc3cccc4ccccc34)cc2C(=O)N([C@H](C)CO)C[C@@H]1C here?
A: The relative growth was inactive: 0.976.

Q: With COc1ccc2c3c(n(c2c1)C)[C@H](CO)N(C[C@]13CCN(CC1)C(=O)c1cnccn1)C(=O)c1cnccn1 as the compound, how does the relative growth read?
A: The relative growth was inactive: 0.996.

Q: How did the relative growth turn out when COCCCNc1ncnc(N)c1[N+](=O)[O-] was run?
A: Its relative growth is inactive: 1.02.

Q: C[C@@H]1CN([C@H](C)CO)C(=O)c2cc(NS(C)(=O)=O)ccc2O[C@@H](C)CCCCO[C@@H]1CN(C)C(=O)c1ccncc1 was tested. Which relative growth did it give?
A: The relative growth was inactive: 1.

Q: C[C@@H]1CN([C@@H](C)CO)C(=O)c2cccc(NC(=O)c3ccc(-c4nccs4)cc3)c2O[C@H]1CN(C)C(=O)Nc1ccccc1 was tested. Which relative growth did it give?
A: Its relative growth is inactive: 0.981.

Q: With C[C@@H]1CN([C@H](C)CO)C(=O)Cc2cc(NC(=O)Nc3cccc4ccccc34)ccc2O[C@@H]1CN(C)Cc1ccc(Oc2ccccc2)cc1 as the compound, how does the relative growth read?
A: Its relative growth is inactive: 1.02.

Q: Which relative growth does the source give for O=c1[nH]c2ccc(F)cc2nc1O here?
A: The relative growth was inactive: 0.99.

Q: CC(C)NC(=O)N(C)C[C@@H]1OCc2cn(nn2)CCCC(=O)N([C@H](C)CO)C[C@H]1C was tested. Which relative growth did it give?
A: The relative growth was inactive: 1.01.

Q: C[C@H](CO)N1C[C@H](C)[C@@H](CN(C)C(=O)Nc2cccc3ccccc23)OCCCC[C@H](C)Oc2ccc(NC(=O)Nc3ccccc3)cc2C1=O was tested. Which relative growth did it give?
A: Its relative growth is inactive: 1.03.

Q: With C[C@H](CO)N1C[C@H](C)[C@H](CN(C)S(=O)(=O)c2cccs2)Oc2ccc(NC(=O)Cn3cnnn3)cc2CC1=O as the compound, how does the relative growth read?
A: Its relative growth is inactive: 0.997.

Q: COc1ccc(S(=O)(=O)Nc2ccc3c(c2)CC(=O)N([C@@H](C)CO)C[C@@H](C)[C@@H](CN(C)CC2CC2)O3)cc1 was tested. Which relative growth did it give?
A: Its relative growth is inactive: 0.989.

Q: For Cc1noc(C)c1NC(=O)N(C)C[C@@H]1Oc2ccc(NC(=O)Nc3cccc4ccccc34)cc2C(=O)N([C@@H](C)CO)C[C@@H]1C, which relative growth is on record?
A: The relative growth was inactive: 1.03.

Q: C[C@H](CO)N1C[C@H](C)[C@@H](CN(C)Cc2ccc(C(=O)O)cc2)Oc2ncc(Br)cc2C1=O was tested. Which relative growth did it give?
A: Its relative growth is inactive: 1.01.

Q: For CC(C)NC(=O)Nc1ccc2c(c1)CC(=O)N([C@H](C)CO)C[C@H](C)[C@@H](CN(C)S(=O)(=O)c1cccs1)O2, which relative growth is on record?
A: Its relative growth is inactive: 0.999.

Q: With COCC#Cc1ccc2c(c1)O[C@H](CN(C)C(=O)c1ccccc1F)[C@@H](C)CN([C@@H](C)CO)S2(=O)=O as the compound, how does the relative growth read?
A: The relative growth was inactive: 1.01.

Q: For C[C@@H]1CCCCO[C@@H](CN(C)Cc2ccc(Cl)c(Cl)c2)[C@@H](C)CN([C@@H](C)CO)C(=O)c2cc(NC(=O)Nc3ccc4c(c3)OCO4)ccc2O1, which relative growth is on record?
A: The relative growth was inactive: 1.01.

Q: With C[C@H](CO)N1C[C@H](C)[C@@H](CN(C)Cc2ccc(Oc3ccccc3)cc2)Oc2c(NC(=O)c3ccc(-c4nccs4)cc3)cccc2C1=O as the compound, how does the relative growth read?
A: Its relative growth is inactive: 1.02.

Q: Which relative growth does the source give for COCC#Cc1ccc([C@H]2[C@@H](CO)N3C(=O)CN(C(=O)CN4CCOCC4)C[C@@H]23)cc1 here?
A: The relative growth was inactive: 1.01.

Q: How did the relative growth turn out when C[C@H]1CN([C@@H](C)CO)C(=O)Cc2cc(NS(=O)(=O)c3cccs3)ccc2O[C@H]1CN(C)Cc1ccc(-c2ccccc2)cc1 was run?
A: The relative growth was inactive: 1.01.

Q: With Cc1ccc(S(=O)(=O)Nc2ccc3c(c2)C(=O)N([C@@H](C)CO)C[C@H](C)[C@@H](CN(C)C(=O)Nc2ccc(C(F)(F)F)cc2)OCCCC[C@@H](C)O3)cc1 as the compound, how does the relative growth read?
A: Its relative growth is inactive: 0.976.
